Experimental data: the supplement of paper PMC8948288
The sequences are guide strands of siRNAs; only the seed at positions 2 to 7 varies.

What was measured:
GL261 = test: cell viability relative to siNT1 (ATP content); H4 human neuroglioma and GL261 mouse glioma; higher = less toxic; conditions: siRNA concentration 25 nM; 96 h; mouse
H4 = test: as above; conditions: siRNA concentration 10 nM; 96 h; human
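Further: cells reverse transfected with siRNA duplexes via lipid reagent, ATP read by luminescence, triplicate wells, values scaled to mean viability with non-targeting control siNT1.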

## UCGCCCGACAUGUAAACCA
GL261
  cell viability: 39.2%
H4
  cell viability: 67.2%

## UCGCCCUACAUGUAAACCA
GL261
  cell viability: 22.1%
H4
  cell viability: 103%

## UCGCCGAACAUGUAAACCA
GL261
  cell viability: 36.1%
H4
  cell viability: 110%

## UCGCCGCACAUGUAAACCA
GL261
  cell viability: 3.83%
H4
  cell viability: 13.7%

## UCGCCGGACAUGUAAACCA
GL261
  cell viability: 30.9%
H4
  cell viability: 53.1%

## UCGCCGUACAUGUAAACCA
GL261
  cell viability: 40.5%
H4
  cell viability: 60.3%

## UCGCCUAACAUGUAAACCA
GL261
  cell viability: 42.7%
H4
  cell viability: 72.7%

## UCGCCUCACAUGUAAACCA
GL261
  cell viability: 29.5%
H4
  cell viability: 24.8%

## UCGCCUGACAUGUAAACCA
GL261
  cell viability: 15.2%
H4
  cell viability: 87.7%

## UCGCCUUACAUGUAAACCA
GL261
  cell viability: 37.9%
H4
  cell viability: 62.1%

## UCGCGAAACAUGUAAACCA
GL261
  cell viability: 39.7%
H4
  cell viability: 79.7%

## UCGCGACACAUGUAAACCA
GL261
  cell viability: 38.9%
H4
  cell viability: 79.5%

## UCGCGAGACAUGUAAACCA
GL261
  cell viability: 36%
H4
  cell viability: 75.2%

## UCGCGAUACAUGUAAACCA
GL261
  cell viability: 35.4%
H4
  cell viability: 120%

## UCGCGCAACAUGUAAACCA
GL261
  cell viability: 34.5%
H4
  cell viability: 80.6%

## UCGCGCCACAUGUAAACCA
GL261
  cell viability: 17.3%
H4
  cell viability: 44%

## UCGCGCGACAUGUAAACCA
GL261
  cell viability: 37.8%
H4
  cell viability: 102%

## UCGCGCUACAUGUAAACCA
GL261
  cell viability: 23.7%
H4
  cell viability: 83.7%

## UCGCGGAACAUGUAAACCA
GL261
  cell viability: 29.4%
H4
  cell viability: 75.1%

## UCGCGGCACAUGUAAACCA
GL261
  cell viability: 3.47%
H4
  cell viability: 33.5%

## UCGCGGGACAUGUAAACCA
GL261
  cell viability: 9.45%
H4
  cell viability: 46.1%

## UCGCGGUACAUGUAAACCA
GL261
  cell viability: 28.4%
H4
  cell viability: 62.9%

## UCGCGUAACAUGUAAACCA
GL261
  cell viability: 51.3%
H4
  cell viability: 78.4%

## UCGCGUCACAUGUAAACCA
GL261
  cell viability: 48%
H4
  cell viability: 63.4%

## UCGCGUGACAUGUAAACCA
GL261
  cell viability: 47.5%
H4
  cell viability: 69.8%

## UCGCGUUACAUGUAAACCA
GL261
  cell viability: 55.5%
H4
  cell viability: 108%

## UCGCUAAACAUGUAAACCA
GL261
  cell viability: 62.6%
H4
  cell viability: 77.2%

## UCGCUACACAUGUAAACCA
GL261
  cell viability: 55.6%
H4
  cell viability: 77.9%

## UCGCUAGACAUGUAAACCA
GL261
  cell viability: 45%
H4
  cell viability: 77.9%

## UCGCUAUACAUGUAAACCA
GL261
  cell viability: 71.1%
H4
  cell viability: 91%

## UCGCUCAACAUGUAAACCA
GL261
  cell viability: 41.5%
H4
  cell viability: 88.5%

## UCGCUCCACAUGUAAACCA
GL261
  cell viability: 12.2%
H4
  cell viability: 15.9%

## UCGCUCGACAUGUAAACCA
GL261
  cell viability: 40.7%
H4
  cell viability: 83.8%

## UCGCUCUACAUGUAAACCA
GL261
  cell viability: 18.2%
H4
  cell viability: 64.7%

## UCGCUGAACAUGUAAACCA
GL261
  cell viability: 41.5%
H4
  cell viability: 80.1%

## UCGCUGCACAUGUAAACCA
GL261
  cell viability: 11.5%
H4
  cell viability: 73.1%

## UCGCUGGACAUGUAAACCA
GL261
  cell viability: 18.1%
H4
  cell viability: 34.1%

## UCGCUGUACAUGUAAACCA
GL261
  cell viability: 16.1%
H4
  cell viability: 98.6%

## UCGCUUAACAUGUAAACCA
GL261
  cell viability: 34%
H4
  cell viability: 78.1%

## UCGCUUCACAUGUAAACCA
GL261
  cell viability: 28.2%
H4
  cell viability: 60.3%

## UCGCUUGACAUGUAAACCA
GL261
  cell viability: 23.3%
H4
  cell viability: 92.4%

## UCGCUUUACAUGUAAACCA
GL261
  cell viability: 18.7%
H4
  cell viability: 111%

## UCGGAAAACAUGUAAACCA
GL261
  cell viability: 60.6%
H4
  cell viability: 67.1%

## UCGGAACACAUGUAAACCA
GL261
  cell viability: 29.1%
H4
  cell viability: 82%

## UCGGAAGACAUGUAAACCA
GL261
  cell viability: 34.4%
H4
  cell viability: 93.9%

## UCGGAAUACAUGUAAACCA
GL261
  cell viability: 63.8%
H4
  cell viability: 87%

## UCGGACAACAUGUAAACCA
GL261
  cell viability: 33.6%
H4
  cell viability: 66.9%

## UCGGACCACAUGUAAACCA
GL261
  cell viability: 16.4%
H4
  cell viability: 59.8%

## UCGGACGACAUGUAAACCA
GL261
  cell viability: 25.7%
H4
  cell viability: 53.6%

## UCGGACUACAUGUAAACCA
GL261
  cell viability: 11.4%
H4
  cell viability: 48.9%

## UCGGAGAACAUGUAAACCA
GL261
  cell viability: 63.2%
H4
  cell viability: 55%

## UCGGAGCACAUGUAAACCA
GL261
  cell viability: 25.1%
H4
  cell viability: 11%

## UCGGAGGACAUGUAAACCA
GL261
  cell viability: 21.5%
H4
  cell viability: 22.9%

## UCGGAGUACAUGUAAACCA
GL261
  cell viability: 27%
H4
  cell viability: 50.5%

## UCGGAUAACAUGUAAACCA
GL261
  cell viability: 40.3%
H4
  cell viability: 72.4%

## UCGGAUCACAUGUAAACCA
GL261
  cell viability: 19.4%
H4
  cell viability: 35.4%

## UCGGAUGACAUGUAAACCA
GL261
  cell viability: 89.4%
H4
  cell viability: 75.5%

## UCGGAUUACAUGUAAACCA
GL261
  cell viability: 40.8%
H4
  cell viability: 77.3%

## UCGGCAAACAUGUAAACCA
GL261
  cell viability: 34.7%
H4
  cell viability: 110%

## UCGGCACACAUGUAAACCA
GL261
  cell viability: 19.5%
H4
  cell viability: 38%

## UCGGCAGACAUGUAAACCA
GL261
  cell viability: 18.2%
H4
  cell viability: 47%

## UCGGCAUACAUGUAAACCA
GL261
  cell viability: 14.3%
H4
  cell viability: 78.4%

## UCGGCCAACAUGUAAACCA
GL261
  cell viability: 37.2%
H4
  cell viability: 68.8%

## UCGGCCCACAUGUAAACCA
GL261
  cell viability: 10.1%
H4
  cell viability: 41.8%

## UCGGCCGACAUGUAAACCA
GL261
  cell viability: 23.4%
H4
  cell viability: 57.1%

## UCGGCCUACAUGUAAACCA
GL261
  cell viability: 23.4%
H4
  cell viability: 37.9%

## UCGGCGAACAUGUAAACCA
GL261
  cell viability: 13.3%
H4
  cell viability: 88.9%

## UCGGCGCACAUGUAAACCA
GL261
  cell viability: 7.5%
H4
  cell viability: 28.6%

## UCGGCGGACAUGUAAACCA
GL261
  cell viability: 8.41%
H4
  cell viability: 6.07%

## UCGGCGUACAUGUAAACCA
GL261
  cell viability: 9.29%
H4
  cell viability: 55.3%

## UCGGCUAACAUGUAAACCA
GL261
  cell viability: 27.8%
H4
  cell viability: 72.7%

## UCGGCUCACAUGUAAACCA
GL261
  cell viability: 5.96%
H4
  cell viability: 22.6%

## UCGGCUGACAUGUAAACCA
GL261
  cell viability: 25.2%
H4
  cell viability: 60.6%

## UCGGCUUACAUGUAAACCA
GL261
  cell viability: 25.9%
H4
  cell viability: 49.2%

## UCGGGAAACAUGUAAACCA
GL261
  cell viability: 44.1%
H4
  cell viability: 74.8%

## UCGGGACACAUGUAAACCA
GL261
  cell viability: 34.6%
H4
  cell viability: 53.9%

## UCGGGAGACAUGUAAACCA
GL261
  cell viability: 43.6%
H4
  cell viability: 79.3%

## UCGGGAUACAUGUAAACCA
GL261
  cell viability: 18.2%
H4
  cell viability: 59.7%

## UCGGGCAACAUGUAAACCA
GL261
  cell viability: 16.7%
H4
  cell viability: 46.3%

## UCGGGCCACAUGUAAACCA
GL261
  cell viability: 4.42%
H4
  cell viability: 4.55%

## UCGGGCGACAUGUAAACCA
GL261
  cell viability: 33.5%
H4
  cell viability: 45.8%

## UCGGGCUACAUGUAAACCA
GL261
  cell viability: 10.5%
H4
  cell viability: 6.64%

## UCGGGGAACAUGUAAACCA
GL261
  cell viability: 34.3%
H4
  cell viability: 23.7%

## UCGGGGCACAUGUAAACCA
GL261
  cell viability: 11.1%
H4
  cell viability: 2.38%

## UCGGGGGACAUGUAAACCA
GL261
  cell viability: 16.4%
H4
  cell viability: 3.79%

## UCGGGGUACAUGUAAACCA
GL261
  cell viability: 14.8%
H4
  cell viability: 3.88%

## UCGGGUAACAUGUAAACCA
GL261
  cell viability: 47.1%
H4
  cell viability: 85.3%

## UCGGGUCACAUGUAAACCA
GL261
  cell viability: 6.64%
H4
  cell viability: 10.6%

## UCGGGUGACAUGUAAACCA
GL261
  cell viability: 33.8%
H4
  cell viability: 80.3%

## UCGGGUUACAUGUAAACCA
GL261
  cell viability: 45%
H4
  cell viability: 82.1%

## UCGGUAAACAUGUAAACCA
GL261
  cell viability: 64.6%
H4
  cell viability: 71.9%

## UCGGUACACAUGUAAACCA
GL261
  cell viability: 36.7%
H4
  cell viability: 55.6%

## UCGGUAGACAUGUAAACCA
GL261
  cell viability: 51.7%
H4
  cell viability: 87.4%

## UCGGUAUACAUGUAAACCA
GL261
  cell viability: 112%
H4
  cell viability: 77.4%

## UCGGUCAACAUGUAAACCA
GL261
  cell viability: 31.7%
H4
  cell viability: 57.6%

## UCGGUCCACAUGUAAACCA
GL261
  cell viability: 6.42%
H4
  cell viability: 26%

## UCGGUCGACAUGUAAACCA
GL261
  cell viability: 28.4%
H4
  cell viability: 53.5%

## UCGGUCUACAUGUAAACCA
GL261
  cell viability: 19.2%
H4
  cell viability: 23.2%

## UCGGUGAACAUGUAAACCA
GL261
  cell viability: 60.4%
H4
  cell viability: 80.7%

## UCGGUGCACAUGUAAACCA
GL261
  cell viability: 29.4%
H4
  cell viability: 11.1%

## UCGGUGGACAUGUAAACCA
GL261
  cell viability: 14.8%
H4
  cell viability: 13.5%

## UCGGUGUACAUGUAAACCA
GL261
  cell viability: 16.1%
H4
  cell viability: 69.6%

## UCGGUUAACAUGUAAACCA
GL261
  cell viability: 72.5%
H4
  cell viability: 90.7%

## UCGGUUCACAUGUAAACCA
GL261
  cell viability: 39.1%
H4
  cell viability: 49%

## UCGGUUGACAUGUAAACCA
GL261
  cell viability: 62.4%
H4
  cell viability: 75.7%

## UCGGUUUACAUGUAAACCA
GL261
  cell viability: 63.1%
H4
  cell viability: 89.3%

## UCGUAAAACAUGUAAACCA
GL261
  cell viability: 64.2%
H4
  cell viability: 101%

## UCGUAACACAUGUAAACCA
GL261
  cell viability: 60.8%
H4
  cell viability: 70.5%

## UCGUAAGACAUGUAAACCA
GL261
  cell viability: 48.9%
H4
  cell viability: 107%

## UCGUAAUACAUGUAAACCA
GL261
  cell viability: 39.4%
H4
  cell viability: 86%

## UCGUACAACAUGUAAACCA
GL261
  cell viability: 56.3%
H4
  cell viability: 113%

## UCGUACCACAUGUAAACCA
GL261
  cell viability: 17%
H4
  cell viability: 50.8%

## UCGUACGACAUGUAAACCA
GL261
  cell viability: 55%
H4
  cell viability: 95.5%

## UCGUACUACAUGUAAACCA
GL261
  cell viability: 58.4%
H4
  cell viability: 87.6%

## UCGUAGAACAUGUAAACCA
GL261
  cell viability: 65.4%
H4
  cell viability: 110%

## UCGUAGCACAUGUAAACCA
GL261
  cell viability: 26.9%
H4
  cell viability: 36.2%

## UCGUAGGACAUGUAAACCA
GL261
  cell viability: 46.7%
H4
  cell viability: 70.7%

## UCGUAGUACAUGUAAACCA
GL261
  cell viability: 27.4%
H4
  cell viability: 82.6%
